# Experimental data taken from PubChem BioAssay (EPA / NIEHS).
# Values joined by “and” are separate entries in the source; they are usually repeats but may differ in a detail not shown here. Equal values may be shown once. The entries are a selection whose mix differs from that of the whole data set. Results filed as inconclusive are left out. Some compounds were tested as several samples or in several runs, with calls that do not always agree. Active and inactive are the calls of the source. The calls were made as follows, unless noted: active = hit-call score of the fitted dose curve at least 0.9, where 1 is the maximum; inactive = score below 0.9.
# How the values were obtained:
# [1] = biological target: human Peroxisome Proliferator-activated Receptor alpha (PPARa), PPARA (gene 5465) (UniProt Q07869); experiment: ATG_PPARa_TRANS: Attagene TRANS-FACTORIAL HepG2 Assay for human Peroxisome Proliferator-activated Receptor alpha (PPARa) (AID 2283001; active = hit-call score of the fitted dose curve at least 0.9, where 1 is the maximum)
# Summary of the method: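 Cells (HepG2) are transfected with multiple reporter transcription units, exposed to chemical for 24 h, then total RNA is reverse-transcribed and amplified. Labelled products are quantified by capillary electrophoresis; induction is referenced to DMSO.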
# [2] = biological target: Peroxisome proliferator-activated receptor gamma (Homo sapiens) (UniProt P37231); experiment: ATG_PPARg_TRANS: Attagene TRANS-FACTORIAL HepG2 Assay for human Peroxisome Proliferator-activated Receptor-gamma (PPARg) (AID 2283007; active = hit-call score of the fitted dose curve at least 0.9, where 1 is the maximum)
# Summary of the method: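 Twenty-four hours after chemical dosing of transiently transfected HepG2 cells, isolated RNA was converted to cDNA, reporter sequences amplified and 6-FAM-labelled, then HpaI-digested and analysed by capillary electrophoresis. Signal increase against DMSO was fitted.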
# [3] = biological target: Nuclear receptor subfamily 1 group I member 2 (Homo sapiens) (UniProt O75469); experiment: ATG_PXR_TRANS: Attagene TRANS-FACTORIAL HepG2 Assay for human Pregnane X Receptor (PXR) (AID 2283008; active = hit-call score of the fitted dose curve at least 0.9, where 1 is the maximum)
# Summary of the method: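 Multiplexed TRANS reporter panel in HepG2; this component tracks PXR-Gal4-driven reporter mRNA after 24 h dosing, measured by RT-PCR with capillary electrophoresis fluorescence, fitted against DMSO.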
# [4] = biological target: Retinoic acid receptor RXR-alpha (Homo sapiens) (UniProt P19793); experiment: ATG_RXRa_TRANS: Attagene TRANS-FACTORIAL HepG2 Assay for human Retinoid X Receptor alpha (RXRa) (AID 2283012; active = hit-call score of the fitted dose curve at least 0.9, where 1 is the maximum)
# Summary of the method: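 Measures exogenous chimeric NR-GAL4 activity in transfected HepG2 liver cells after 24 h of dosing. Induced reporter mRNA was detected by RT-PCR with capillary electrophoresis, and gain of signal was analysed against DMSO.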
# [5] = read-out: E-selectin (Homo sapiens) (UniProt P16581); experiment: BSK_3C_Eselectin: BioMAP Diversity Plus: 3C Assay for Eselectin Biomarker Activity (AID 2283015); settings: actives raise or lower the signal; primary human endothelial cells (HUVEC)
# Summary of the method: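 Human vascular endothelium from umbilical vein is exposed to test chemicals for 24 h. E-selectin levels are read by ELISA and compared with DMSO controls.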
# [6] = BSK_BE3C_SRB: Viability Assessment in the BioMAP Diversity Plus: BE3C Assay (AID 2283028); settings: primary human bronchial epithelial cells;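 also: fitted both ways so AC50 may mark signal gain or loss versus DMSO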
# Summary of the method: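 Overt cytotoxicity was assessed as total protein in confluent human primary bronchial epithelial cultures 24 h after chemical addition, using 0.1% sulforhodamine B staining read at 560 nm.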
# [7] = read-out: Vascular cell adhesion molecule 1 (VCAM1), VCAM1 (gene 7412); experiment: BSK_4H_VCAM1: BioMAP Diversity Plus: 4H Assay for Vascular cell adhesion molecule 1 (VCAM1) Biomarker Activity (AID 2283033); settings: actives raise or lower the signal; primary human endothelial cells (HUVEC)
# Summary of the method: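 Chemicals are added to primary human umbilical vein endothelial cells. After 24 h, VCAM-1 levels are measured by ELISA. Values come from bidirectional fitting referenced to DMSO.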
# [8] = read-out: Interleukin-6 (IL6), IL6 (gene 3569); experiment: BSK_CASM3C_IL6: BioMAP Diversity Plus: CASM3C Assay for Interleukin-6 (IL6) Biomarker Activity for (AID 2283040); settings: actives raise or lower the signal; primary human coronary artery smooth muscle cells
# [9] = read-out: Monocyte Chemoattractant Protein-1 (MCP1), CCL2 (gene 6347); experiment: BSK_CASM3C_MCP1: BioMAP Diversity Plus: CASM3C Assay for Monocyte Chemoattractant Protein-1 (MCP1) Biomarker Activity (AID 2283046); settings: actives raise or lower the signal; primary human coronary artery smooth muscle cells;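 also: MCP-1 level quantified by ELISA 24 h after dosing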
# [10] = read-out: serum amyloid A (SAA), SAA1 (gene 6288); experiment: BSK_CASM3C_SAA: BioMAP Diversity Plus: CASM3C Assay for serum amyloid A (SAA) Biomarker Activity (AID 2283049); settings: actives raise or lower the signal; primary human coronary artery smooth muscle cells;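 also: SAA protein level quantified by ELISA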
# [11] = read-out: TIMP metallopeptidase inhibitor 1 (TIMP1), TIMP1 (gene 7076); experiment: BSK_hDFCGF_TIMP1: BioMAP Diversity Plus: hDFCGF Assay for TIMP metallopeptidase inhibitor 1 (TIMP1) Biomarker Activity (AID 2283062); settings: actives raise or lower the signal; primary human foreskin fibroblasts
# Summary of the method: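 Fibroblasts from human foreskin are treated with test chemical and harvested at 24 h. TIMP-1 is quantified by ELISA, and gain or loss of signal is scored against DMSO.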
# [12] = read-out: Monokine induced gamma interferon (MIG), CXCL9 (gene 4283); experiment: BSK_hDFCGF_MIG: BioMAP Diversity Plus: hDFCGF Assay for Monokine induced gamma interferon (MIG) Biomarker Activity (AID 2283063); settings: actives raise or lower the signal; primary human foreskin fibroblasts
# Summary of the method: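 MIG signal, determined by ELISA, reflects 24 h chemical exposure of human skin primary fibroblasts. DMSO serves as negative control and baseline.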
# [13] = read-out: Matrix Metallopeptidase 1 (MMP1), MMP1 (gene 4312); experiment: BSK_hDFCGF_MMP1: BioMAP Diversity Plus: hDFCGF Assay for Matrix Metallopeptidase 1 (MMP1) Biomarker Activity (AID 2283064); settings: actives raise or lower the signal; primary human foreskin fibroblasts
# Summary of the method: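 Human foreskin fibroblasts exposed to chemical for 24 h; MMP1 detected by ELISA, with DMSO as baseline for bidirectional fitting.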
# [14] = read-out: Plasminogen activator inhibitor-1 (PAI1), SERPINE1 (gene 5054); experiment: BSK_hDFCGF_PAI1: BioMAP Diversity Plus: hDFCGF Assay for Plasminogen activator inhibitor-1 (PAI1) Biomarker Activity (AID 2283066); settings: actives raise or lower the signal; primary human foreskin fibroblasts
# Summary of the method: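 Fibroblasts from human foreskin were treated with test chemical. After 24 h, PAI-1 was measured by ELISA. Activity was fitted in both directions relative to DMSO.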
# [15] = BSK_KF3CT_SRB: Viability Assessment in the BioMAP Diversity Plus: KF3CT Assay (AID 2283069); settings: primary human keratinocytes with fibroblasts;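 also: fitted for both signal gain and loss against DMSO baseline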
# Summary of the method: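 Overt cytotoxicity is assessed as total protein by sulforhodamine B staining in parallel human skin co-cultures at 24 h after dosing. DMSO serves as negative control and baseline.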
# [16] = read-out: Interleukin-1 alpha (IL1a), IL1A (gene 3552); experiment: BSK_KF3CT_IL1a: BioMAP Diversity Plus: KF3CT Assay for Interleukin-1 alpha (IL1a) Biomarker Activity (AID 2283070); settings: actives raise or lower the signal; primary human keratinocytes with fibroblasts
# Summary of the method: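 Readout is IL-1a level by ELISA, compared bidirectionally with DMSO as baseline. Cells: human keratinocytes co-cultured with foreskin fibroblasts, harvested 24 h post-dose.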
# [17] = read-out: Transforming growth factor beta 1 (TGFb1), TGFB1 (gene 7040); experiment: BSK_KF3CT_TGFb1: BioMAP Diversity Plus: KF3CT Assay for Transforming growth factor beta 1 (TGFb1) Biomarker Activity (AID 2283072); settings: actives raise or lower the signal; primary human keratinocytes with fibroblasts
# Summary of the method: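 KF3CT co-culture (keratinocytes + fibroblasts), 24 h exposure → TGF-b1 ELISA → bidirectional fit, DMSO = baseline. Parallel SRB total-protein staining (0.1% SRB, 10% TCA fixation, 560 nm) for cytotoxicity.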
# [18] = read-out: urokinase plasminogen activator (uPA), PLAU (gene 5328); experiment: BSK_KF3CT_uPA: BioMAP Diversity Plus: KF3CT Assay for urokinase plasminogen activator (uPA) Biomarker Activity (AID 2283075); settings: actives raise or lower the signal; primary human keratinocytes with fibroblasts
# Summary of the method: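 Values derive from bidirectional fitting against DMSO controls. Keratinocyte/foreskin fibroblast co-cultures received chemical; 24 h later uPA was detected by ELISA, with SRB total-protein staining in parallel wells for overt cytotoxicity.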
# [19] = read-out: E-selectin (Homo sapiens) (UniProt P16581); experiment: BSK_LPS_Eselectin: BioMAP Diversity Plus: LPS Assay for Eselectin Biomarker Activity (AID 2283077); settings: actives raise or lower the signal; primary human HUVEC with PBMC
# Summary of the method: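 Signal of E-selectin, detected by ELISA, served as the endpoint; cells were umbilical vein endothelium with PBMC, read 24 h after treatment. DMSO defined baseline, and both increases and decreases were fitted.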
# [20] = read-out: Interleukin-1 alpha (IL1a), IL1A (gene 3552); experiment: BSK_LPS_IL1a: BioMAP Diversity Plus: LPS Assay for Interleukin-1 alpha (IL1a) Biomarker Activity (AID 2283080); settings: actives raise or lower the signal; primary human HUVEC with PBMC
# Summary of the method: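 Measured: IL-1 alpha via ELISA at 24 h in LPS-activated human umbilical vein endothelium–PBMC co-culture. Baseline: DMSO, bidirectional fitting.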
# [21] = read-out: Vascular cell adhesion molecule 1 (VCAM1), VCAM1 (gene 7412); experiment: BSK_LPS_VCAM1: BioMAP Diversity Plus: LPS Assay for Vascular cell adhesion molecule 1 (VCAM1) Biomarker Activity (AID 2283086); settings: actives raise or lower the signal; primary human HUVEC with PBMC
# Summary of the method: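 Cells are dosed in an LPS-stimulated endothelial/mononuclear co-culture and, after 24 h, VCAM-1 is quantified by ELISA. Activity in either direction is fitted relative to the DMSO negative control.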
# CD38, CD38 (gene 952) = experiment: BSK_SAg_CD38: BioMAP Diversity Plus: SAg Assay for CD38 Biomarker Activity (AID 2283087); settings: actives raise or lower the signal; primary human HUVEC with PBMC
# Summary of the method: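 CD38 quantified by ELISA (fluorescence) in a superantigen-activated endothelial cell–PBMC co-culture at 24 h post-dose. Activity fitted in both directions relative to DMSO; parallel SRB and Alamar Blue cytotoxicity read-outs.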
# UniProt P37231, sequence (P37231 whole entry, looked up): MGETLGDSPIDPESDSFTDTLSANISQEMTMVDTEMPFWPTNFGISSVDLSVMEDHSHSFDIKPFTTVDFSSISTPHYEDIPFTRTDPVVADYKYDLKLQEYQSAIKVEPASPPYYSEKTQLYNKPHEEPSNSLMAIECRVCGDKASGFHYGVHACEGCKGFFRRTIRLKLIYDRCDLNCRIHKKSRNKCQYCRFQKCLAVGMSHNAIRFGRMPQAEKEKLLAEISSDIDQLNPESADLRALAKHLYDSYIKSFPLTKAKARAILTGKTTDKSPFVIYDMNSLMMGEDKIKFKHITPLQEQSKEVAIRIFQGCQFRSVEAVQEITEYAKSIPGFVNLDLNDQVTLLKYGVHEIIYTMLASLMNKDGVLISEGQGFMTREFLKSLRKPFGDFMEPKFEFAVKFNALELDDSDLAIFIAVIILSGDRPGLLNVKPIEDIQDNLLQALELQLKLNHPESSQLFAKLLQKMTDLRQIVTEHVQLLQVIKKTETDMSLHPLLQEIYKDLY
# UniProt P16581, sequence (P16581 whole entry, looked up): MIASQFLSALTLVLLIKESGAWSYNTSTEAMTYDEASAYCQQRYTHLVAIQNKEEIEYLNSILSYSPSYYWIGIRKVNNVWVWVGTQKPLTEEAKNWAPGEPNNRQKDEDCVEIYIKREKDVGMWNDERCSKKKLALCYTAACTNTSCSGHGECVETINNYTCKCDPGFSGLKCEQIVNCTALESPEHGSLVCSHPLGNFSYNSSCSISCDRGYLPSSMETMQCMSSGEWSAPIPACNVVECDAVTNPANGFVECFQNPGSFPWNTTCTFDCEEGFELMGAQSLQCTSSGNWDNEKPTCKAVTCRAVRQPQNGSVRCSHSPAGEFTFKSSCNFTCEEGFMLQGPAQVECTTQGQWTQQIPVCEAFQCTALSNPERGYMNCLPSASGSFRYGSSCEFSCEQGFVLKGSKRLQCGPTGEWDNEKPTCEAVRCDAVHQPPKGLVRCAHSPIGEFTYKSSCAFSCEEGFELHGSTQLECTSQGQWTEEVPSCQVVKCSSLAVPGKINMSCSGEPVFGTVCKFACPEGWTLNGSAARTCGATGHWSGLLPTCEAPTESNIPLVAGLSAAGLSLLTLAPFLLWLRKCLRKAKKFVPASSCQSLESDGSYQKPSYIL
# UniProt Q07869, sequence (Q07869 whole entry, looked up): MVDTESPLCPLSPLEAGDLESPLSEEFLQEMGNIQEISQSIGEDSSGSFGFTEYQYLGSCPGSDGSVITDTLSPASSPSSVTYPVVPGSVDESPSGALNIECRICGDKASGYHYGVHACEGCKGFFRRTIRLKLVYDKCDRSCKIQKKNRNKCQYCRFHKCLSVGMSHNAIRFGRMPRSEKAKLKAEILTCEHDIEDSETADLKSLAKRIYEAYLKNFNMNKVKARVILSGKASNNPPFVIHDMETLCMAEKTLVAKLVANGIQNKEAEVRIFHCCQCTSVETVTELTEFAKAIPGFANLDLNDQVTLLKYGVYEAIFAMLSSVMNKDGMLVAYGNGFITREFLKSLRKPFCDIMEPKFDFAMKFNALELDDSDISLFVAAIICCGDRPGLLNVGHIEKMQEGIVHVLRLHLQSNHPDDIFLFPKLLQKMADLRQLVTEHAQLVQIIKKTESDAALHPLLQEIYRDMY
# UniProt O75469, sequence (O75469 whole entry, looked up, the tested form may be a part): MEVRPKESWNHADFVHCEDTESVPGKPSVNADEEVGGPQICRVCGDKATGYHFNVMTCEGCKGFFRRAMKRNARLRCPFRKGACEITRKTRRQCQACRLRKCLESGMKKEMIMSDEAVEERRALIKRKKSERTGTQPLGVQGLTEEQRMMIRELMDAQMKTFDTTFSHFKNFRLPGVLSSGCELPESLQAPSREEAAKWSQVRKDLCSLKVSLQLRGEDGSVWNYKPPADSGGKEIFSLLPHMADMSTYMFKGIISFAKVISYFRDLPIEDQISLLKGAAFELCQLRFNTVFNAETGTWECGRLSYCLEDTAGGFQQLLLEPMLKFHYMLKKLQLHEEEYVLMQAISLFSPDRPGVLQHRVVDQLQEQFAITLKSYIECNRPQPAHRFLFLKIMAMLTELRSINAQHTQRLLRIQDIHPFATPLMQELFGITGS
# UniProt P19793, sequence (P19793 whole entry, looked up, the tested form may be a part): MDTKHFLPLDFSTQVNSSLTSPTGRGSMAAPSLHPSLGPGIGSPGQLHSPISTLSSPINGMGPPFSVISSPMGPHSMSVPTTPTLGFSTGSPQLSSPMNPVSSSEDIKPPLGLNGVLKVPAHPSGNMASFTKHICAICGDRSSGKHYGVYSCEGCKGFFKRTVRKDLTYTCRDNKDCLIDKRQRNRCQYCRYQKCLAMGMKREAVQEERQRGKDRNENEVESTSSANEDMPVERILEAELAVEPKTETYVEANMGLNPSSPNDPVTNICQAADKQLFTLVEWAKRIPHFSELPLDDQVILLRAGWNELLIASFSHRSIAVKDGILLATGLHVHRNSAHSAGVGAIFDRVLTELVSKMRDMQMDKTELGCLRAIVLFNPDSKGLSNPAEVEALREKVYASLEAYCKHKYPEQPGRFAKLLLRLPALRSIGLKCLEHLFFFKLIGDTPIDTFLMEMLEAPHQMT
smiles,measurement,setting,value
Oc1ccc(Cl)cc1Cc1ccccc1,outcome,[1],inactive
same,AC50,[2],active: 11.2 µM
same,AC50,[3],active: 14.6 µM
same,AC50,[4],active: 15.4 µM
same,AC50,[5],active: 31.2 µM
same,AC50,[6],active: 38.6 µM and active: 35.1 µM
same,AC50,[7],active: 25.6 µM
same,AC50,[8],active: 27.4 µM
same,AC50,[9],active: 31.8 µM and active: 32.5 µM
same,AC50,[10],active: 31.4 µM
same,AC50,[11],active: 15.5 µM
same,AC50,[12],active: 26.4 µM and active: 25.6 µM
same,AC50,[13],active: 13.5 µM
same,AC50,[14],active: 10.8 µM
same,AC50,[15],active: 35.2 µM
same,AC50,[16],active: 29.4 µM
same,AC50,[17],active: 25.5 µM
same,AC50,[18],active: 31.2 µM
same,AC50,[19],active: 31.2 µM
same,AC50,[20],active: 32.5 µM
same,AC50,[21],active: 30.6 µM
same,AC50,"CD38, CD38 (gene 952)",active: 32.7 µM
